Assay results taken from ChEMBL document CHEMBL1157539, “Thousands of chemical starting points for antimalarial lead identification” (Nature, 2010).
Whole data set: some 13,000 compounds, median “IFI” near 4, cut for the highest 2% near 17. The list shows a part of the results.

Assay: GSK_TCMDC: Inhibition Frequency Index (IFI). The number of non-kinase HTS assays where a compound showed > 50 % inhibition, expressed as a percentage of the number of such assays in which the compound was tested (-0 is zero)
Type: functional
Compound CC(C)(C)c1ccc2[nH]c(-c3ccc(/C=C/C(=O)NC4CCN(Cc5ccccc5)CC4)cc3)nc2c1 has an IFI of 5.19%. With COc1ccc(NC(=O)C2c3ccccc3C(=O)N(C3CCCC3)C2c2cccs2)cc1OC (stereo not given) the IFI was 4.76%. CCCc1ccc(Nc2nc(C)cc(N(CC)CCCN3CCCCC3)n2)cc1 showed an IFI of 13.9%. COc1ccc(-c2nc(-c3ccc([N+](=O)[O-])cc3)no2)cc1OC showed an IFI of 0%. Work on C#CCNC(=O)c1ccc(-c2ccnc(Nc3cccc(CCCN4CCOCC4)c3)n2)s1 yielded an IFI of 9.68%. Cc1[nH]c(C)c(-c2ccc(-c3ccc(OCC(F)(F)F)cc3)nc2)c(=O)c1Cl showed an IFI of -0%. O=C(NCc1ccc(Cl)c(Cl)c1)c1ccc(-c2nc3ccc(Cl)cc3[nH]2)cc1 showed an IFI of 2.27%. With CCCNc1ccc2nccc(CCN3CCC(NCc4ccc5c(n4)NC(=O)CS5)CC3)c2n1 the IFI was 5.15%. Compound Cc1cc(C2CCN(CCCCNC(=O)c3ccc(-c4ccc(C(F)(F)F)cc4)cc3)CC2)c(C)cc1OCC(N)=O has an IFI of 5.5%. Work on Cc1ccc(F)c(OCC2CCCN(c3ccc(C(=O)NC4CC4)cn3)C2)c1 (stereo not given) yielded an IFI of 0%. In the case of Cc1cccc2nc(-c3ccc(-c4ccc(NC(=O)Nc5cccc(C#N)c5)cc4)s3)[nH]c12, the IFI is reported as 3%. Compound Cc1ccc(Nc2nccc(NCC(O)c3cccc(F)c3)n2)cc1 (stereo not given) has an IFI of 9.71%. CC(Nc1cc(-c2ccccn2)nc(-c2ccccn2)n1)c1ccccc1 (stereo not given) gave an IFI of 14%. Compound COc1ccc(NC(=O)Nc2cccc(-c3cccc(-c4nc5ccccc5[nH]4)c3)c2)cc1 has an IFI of 3.09%. Work on CN(C)S(=O)(=O)c1ccc(Nc2nc(NCCC3C=NC=N3)nc3cc[nH]c(=O)c23)cc1 (stereo not given) yielded an IFI of 0%. For CCOc1c(Br)cc(Cl)cc1CNCCCNc1nc2ccccc2[nH]1, the IFI was 5.71%. Compound Cc1nc(C)c(-c2ccc(Oc3cccc(OC(F)(F)F)c3)cc2)c(O)c1Cl has an IFI of 0%. CC[C@H]1CN2CCc3c([nH]c4ccccc34)[C@@H]2C[C@@H]1CC1c2cc(OC)c(OC)cc2CCN1C (stereo not given in full) showed an IFI of 6.87%. Cc1ccc(CCC(C)NCC(O)c2cccc(C(F)(F)F)c2)cc1 (stereo not given) showed an IFI of 3.62%. Compound O=[N+]([O-])c1ccc(C2=NN(S(=O)(=O)c3c(Cl)cc(Cl)cc3Cl)CCCC2)cc1 has an IFI of 2.31%. CSc1cccc(NC(=O)c2cc3ccccc3oc2=O)c1 gave an IFI of 0.72%. In the case of CN(CC(=O)Nc1ccc(F)cc1)C(=O)c1ccc(-c2ccc(F)cc2)o1, the IFI is reported as 0%. Work on CCN(CC)c1ccc(C(=O)Cn2ccc(=N)cc2)cc1 yielded an IFI of 2.24%. CSc1ccc(CN2CCC(CNC(=O)c3cc(-c4ccccc4F)cs3)C2)cc1 (stereo not given) gave an IFI of 12%. For COc1cc(OC)cc(-c2nn(-c3ccc([N+](=O)[O-])cc3Cl)c(=S)n2Cc2ccco2)c1, the IFI was 2.03%. Work on CCC(CC)(CCC#N)CN(C[C@@H](O)[C@H](Cc1ccccc1)NC(=O)OC(C)(C)C)S(=O)(=O)c1ccc(OC)cc1 yielded an IFI of 2.16%. Cc1nc(C)c(CC(=O)Nc2cccc(-c3cccc(-c4nc5cccc(C)c5[nH]4)c3)c2)s1 gave an IFI of 14.9%. With Cc1ccc(NC(=O)c2ccc3ncccc3c2)cc1OC1CCN(Cc2ccco2)C1 (stereo not given) the IFI was 1.69%. For CN(C)[C@@H]1C(O)=C(C(N)=O)C(=O)[C@@]2(O)C(O)=C3C(=O)c4c(O)ccc(C#Cc5ccccn5)c4C[C@H]3C[C@@H]12, the IFI was 14.7%. Compound O=C(Cc1ccccc1)NC1CCN(c2ccnc3cc(Cl)ccc23)C1 (stereo not given) has an IFI of -0%. CN(C)CCN(C)Cc1ccc(-c2ccc3c(Nc4ccc(F)cc4Cl)ccnc3c2)o1 showed an IFI of 9.86%. Work on O=C(Nc1cccc(CN2CCCN(Cc3ccccc3)CC2)c1)c1cc2ccccc2s1 yielded an IFI of 7.63%. N=C(N)Nc1ccc(C(=O)O)c(O)c1 gave an IFI of -0%. Work on CC(=O)N(C)c1cccc(CNc2cc(C)nc(Nc3ccc(C)cc3)n2)c1 yielded an IFI of 4.35%. In the case of CNc1ccc(CNCc2ccc(-c3ccc(-c4nc5cccc(C)c5[nH]4)s3)cc2)cc1, the IFI is reported as 10.2%. Cc1nc(C)c(CC(=O)Nc2ccc(-c3cccc(-c4nc5cccc(C)c5[nH]4)c3)cc2)s1 showed an IFI of 13%. Compound CN1CCC(C(=O)Nc2ccc(-c3cccc(-c4nc5cc(C(F)(F)F)ccc5[nH]4)c3)cc2)CC1 has an IFI of 6.9%. Work on O=C(Nc1cccc(-c2nn3ccccc3c2-c2ccnc(Nc3ccc(Cc4ccncc4)cc3)n2)c1)c1c(F)cccc1F yielded an IFI of 2.86%. With CN(C)CCNCc1ccc(-c2ccc(-c3nc4cc(F)ccc4[nH]3)cc2)cc1 the IFI was 6.93%. CCC(C)OC(=O)C1=C(C)NC2=C(C(=O)CC(c3ccc(OC)c(OC)c3)C2)C1c1cccc(O)c1 (stereo not given) gave an IFI of 1.99%. CC(Nc1nc(Nc2ccc(F)cc2)nc(SCC(N)=O)n1)c1ccccc1 (stereo not given) gave an IFI of 4%. CC(CCCCC(=O)Nc1ccc(C(F)(F)F)cc1)NCC(O)c1cccc(Cl)c1 (stereo not given) showed an IFI of 15%. Work on O=C(Nc1cc(Cl)cc(Cl)c1)Nc1ccnc2ccccc12 yielded an IFI of 7.19%. COc1ccc(CNCc2ccc(F)cc2)cc1-c1ccc(OC)c(S(=O)(=O)NCCN2CCCC2)c1 showed an IFI of 7.69%. Work on Cc1cccc(C(=O)N2CCN(Cc3cccc(NC(=O)c4ccco4)c3)CC2)c1 yielded an IFI of 0.76%. COc1c(F)ccc2ncc(Cl)c(CCN3CCC(NCc4ccc5c(n4)NC(=O)CS5)CC3)c12 showed an IFI of 4.41%. With Cc1ccc(CNC(=O)[C@H](Cc2ccccc2)Nc2ccnc(NCC3CCCCC3)n2)cc1 the IFI was 11.1%. Compound CN(C)CCOC(=O)C1(O)CCC2CC1C2(C)C (stereo not given) has an IFI of 0.74%. Work on c1ccc2nc(NCCCCCCCCNc3ccc4ccccc4n3)ccc2c1 yielded an IFI of 8.46%. Compound Cc1cc(OCC2CCN(c3ccc(C(=O)NC4CC4)cn3)CC2)ccc1F has an IFI of 2%. In the case of CNc1ccc(CNCc2ccc(-c3ccc(-c4nc5cc(C(F)(F)F)ccc5[nH]4)cc3)cc2)cc1, the IFI is reported as 14.1%. In the case of CC(C)(C)c1ccc(CN2CCC(CNC(=O)c3cc(-c4ccccc4Cl)cs3)C2)cc1 (stereo not given), the IFI is reported as 12.5%. Compound CCOC(=O)c1c(CNc2ccncc2)n(C)c2cc(Br)c(OC(C)=O)cc12 has an IFI of 0.74%. With Cc1ccc(C)c(NC(=O)NCCNc2ccnc(Nc3ccc(F)cc3)n2)c1 the IFI was 6.06%. In the case of COc1ccc(CCNC(C)Cc2ccc(C(=O)Nc3ccc(CC(C)NCCc4cccc(Cl)c4)cc3)cc2)cc1 (stereo not given), the IFI is reported as 9.86%. Cc1ccc(Cn2ccc3c4c(N)nc(N)nc4ccc32)cc1 gave an IFI of 8.53%. Cc1nn(-c2ccccc2)c2c1C(c1ccc(C(C)C)cc1)N1C(=N2)N(Cc2ccccc2)c2ccccc21 (stereo not given) showed an IFI of 1.43%. For COc1cc(NC(=O)c2cccc([N+](=O)[O-])c2)cc(S(=O)(=O)c2ccc(Cl)cc2)c1, the IFI was 1.92%. CCc1nc2c(cnn2CC)c(NC2CCOCC2)c1CNC(=O)N1CCOCC1 showed an IFI of 0%. For O=C(NC1CCN(c2ccnc3cc(Cl)ccc23)C1)c1cccc(F)c1 (stereo not given), the IFI was 1.52%. COc1cc2ncnc(Nc3ccc(OC(F)(F)c4ccccc4)cc3)c2cc1OC showed an IFI of 1.44%. Cc1cccc(-n2c(Nc3ccc(C)c(Cl)c3)nc3ccc(S(=O)(=O)NC(C)C(C)C)cc32)c1 (stereo not given) gave an IFI of 2.24%. In the case of COc1ccccc1NC(=S)N/N=C/c1ccc(O)cc1O, the IFI is reported as 7.19%. O=C(NC1CC1c1ccccc1)N(CCCn1ccnc1)Cc1csc(-c2ccc(CNCc3ccccc3)cc2)n1 (stereo not given) showed an IFI of 4.7%. O=C(/C=C/c1c(Cl)cccc1Cl)NC1CCC(CN2CCC(Cc3cc4ccccc4[nH]3)CC2)CC1 (stereo not given) gave an IFI of 9.16%. Compound COc1cc(C=Cc2ccc3ccccc3n2)cc(Br)c1OCC(=O)N(C)C has an IFI of 4.44%. For CCC[C@@H]([C@@H](CC(C)C)C(=O)N[C@@H](CCCCNC(=O)OCc1ccccc1)C(=O)Nc1ncccn1)N(O)C=O, the IFI was 2.91%. For CCCCCc1ccc(NC(=O)Nc2ccc(Cn3ncc(N4CCCNCC4)c(Cl)c3=O)cc2)cc1, the IFI was 9.09%. In the case of O=C(Nc1ccc(OC(F)(F)F)cc1)Nc1ccc([N+](=O)[O-])cc1, the IFI is reported as 20.1%. Cc1cccc(-n2c(=O)c3c4c(sc3n3c(SCCC(C)C)nnc23)CCCC4)c1 gave an IFI of 2.14%. With Cc1csc(-c2ncc(OC[C@@H](N)Cc3ccccc3)cc2-c2ccc3[nH]nc(C)c3c2)c1 the IFI was 10.8%. O=C(Nc1cccc(-c2cccc(-c3nc4cc(C(F)(F)F)ccc4[nH]3)c2)c1)c1ccc(=O)[nH]n1 showed an IFI of 2.73%. Work on N#Cc1ccc(CN2CCCN(c3ccc(NC(=O)c4ccc(F)cc4)cc3)CC2)cc1 yielded an IFI of 8.33%. CNC(=N)c1ccc(NC(=O)Nc2ccc(C(=N)NC)cc2)cc1 gave an IFI of 1.46%. With CN(Cc1ccc(-c2ccc(C(F)(F)F)cc2)cc1)C(=O)Cn1c(CCc2cccc(F)c2F)cc(=O)c2ccc(OCCCN3CCCCC3)cc21 the IFI was 6.99%. O=C(NCCCCN1CCC(c2cccc3ccccc23)CC1)c1ccc(-c2ccc(C(F)(F)F)cn2)cc1 showed an IFI of 1.48%. In the case of CNCCNCc1cccc(-c2ccc(-c3nc4ccccc4[nH]3)s2)c1, the IFI is reported as 8%. Cc1nc2nc(N)nc(N)c2c(C)c1Cc1ccc(C#N)cc1 showed an IFI of 2.9%. In the case of CCC(C)c1cccc(C(C)CC)c1OCCCON1C(N)=NC(N)=NC1(C)C (stereo not given), the IFI is reported as 24.1%. In the case of CCCCNC(=O)[C@@H]1CCCN1C(=O)c1ccc(O)c(-c2ccc(Cl)c(Cl)c2)c1, the IFI is reported as 0.74%. With O=[N+]([O-])c1ccc(C=NNc2nc(Nc3ccccc3)nc(Nc3ccccc3)n2)o1 the IFI was 9.93%. Cc1[nH]c(CNCCCNc2cc(=O)c3ccccc3[nH]2)c(Br)c1Br gave an IFI of 2.86%. In the case of Clc1ccc2c(NCc3ccccn3)ccnc2c1, the IFI is reported as 0%. For CC1CCCC(C)N1C[C@@H](O)CNS(=O)(=O)c1cccc(C(F)(F)F)c1 (stereo not given in full), the IFI was 1.98%. For COc1ccc(-c2nc3c(N)nc(N)nc3nc2-c2ccccc2Cl)cc1.COc1ccc(-c2nc3nc(N)nc(N)c3nc2-c2ccccc2Cl)cc1, the IFI was 3.68%. COc1cccc(OC)c1C(=O)Nc1cccc(-c2nn3ccccc3c2-c2ccnc(Nc3cccc(F)c3)n2)c1 gave an IFI of 2.82%. Work on Cc1ccccc1C1CCN(c2ccc(NC(=O)c3ccc(Cl)nc3)cc2)CC1 yielded an IFI of 2.04%. CCCc1cc(Cc2cnc(N)nc2N)cc(CCC)c1OCCCCC(=O)OCC gave an IFI of 7.91%. Compound Cc1cccc2nc(-c3cccc(-c4ccc(NC(=O)CCc5c[nH]cn5)cc4)c3)[nH]c12 has an IFI of 1.74%. Compound COc1cccc(CNc2ncc(-c3ccsc3)c(-c3nccs3)n2)c1 has an IFI of 5.68%.
